# Some of the results follow.
# B1: PNGase F (Flavobacterium meningosepticum) (protein)
# chain: GIPAPADNTVNIKTFDKVKNAFGDGLSQSAEGTFTFPADVTAVKTIKMFIKNECPNKTCDEWDRYANVYVKNKTTGEWYEIGRFITPYWVGTEKLPRGLEIDVTDFKSLLSGNTELKIYTETWLAKGREYSVDFDIVYGTPDYKYSAVVPVVQYNKSSIDGVPYGKAHTLALKKNIQLPTNTEKAYLRTTISGWGHAKPYDAGSRGCAEWCFRTHTIAINNSNTFQHQLGALGCSANPINNQSPGNWTPDRAGWCPGMAVPTRIDVLNNSLIGSTFSYEYKFQNWTNNGTNGDAFYAISSFVIAKSNTPISAPVVTNLDPHHHHHH
# How the values were obtained:
# Test in all cases: glycan array binding signal (z-score within array); higher = stronger binding
# Settings in all cases: glycan notation: IUPAC condensed, linker removed
# Neu5Ac(a2-8)Neu5Ac = biological target: Neu5Ac(a2-8)Neu5Ac
# How it was run: (§1)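 Arrays were curated from the Consortium for Functional Glycomics database, 3228 in total, and kept only where the protein sequence was available. Binding is expressed as a within-array Z-score. This score was averaged across arrays of the same protein sequence at different concentrations or buffers and across linkers, and negative values can be read as non-binding.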
# [1] = biological target: Neu5Ac(a2-8)Neu5Ac(a2-3)Gal(b1-3)GalNAc(b1-4)[Neu5Ac(a2-3)]Gal(b1-4)Glc
# How it was run: as §1
# [2] = biological target: Neu5Ac(a2-8)Neu5Ac(a2-3)Gal(b1-3)GalNAc(b1-4)[Neu5Ac(a2-8)Neu5Ac(a2-3)]Gal(b1-4)Glc
# How it was run: as §1
# [3] = biological target: Neu5Ac(a2-8)Neu5Ac(a2-3)Gal(b1-4)Glc
# How it was run: as §1
# [4] = biological target: Neu5Ac(a2-8)Neu5Ac(a2-3)Gal(b1-4)GlcNAc
# How it was run: as §1
# [5] = biological target: Neu5Ac(a2-8)Neu5Ac(a2-3)[Gal(b1-3)GalNAc(b1-4)]Gal(b1-4)Glc
# How it was run: as §1
# [6] = biological target: Neu5Ac(a2-8)Neu5Ac(a2-3)[GalNAc(b1-4)]Gal(b1-4)Glc
# How it was run: as §1
# [7] = biological target: Neu5Ac(a2-8)Neu5Ac(a2-8)Neu5Ac
# How it was run: as §1
# [8] = biological target: Neu5Ac(a2-8)Neu5Ac(a2-8)Neu5Ac(a2-3)Gal(b1-4)Glc
# How it was run: as §1
# [9] = biological target: Neu5Ac(a2-8)Neu5Ac(a2-8)Neu5Ac(a2-3)[Gal(b1-3)GalNAc(b1-4)]Gal(b1-4)Glc
# How it was run: as §1
# [10] = biological target: Neu5Ac(a2-8)Neu5Ac(a2-8)Neu5Ac(a2-3)[GalNAc(b1-4)]Gal(b1-4)Glc
# How it was run: as §1
# [11] = biological target: Neu5Ac(a2-8)Neu5Ac(a2-8)Neu5Ac(a2-8)Neu5Ac(a2-3)[GalNAc(b1-4)]Gal(b1-4)Glc
# How it was run: as §1
# [12] = biological target: Neu5Ac(a2-8)Neu5Gc(a2-3)Gal(b1-4)GlcNAc
# How it was run: as §1
# [13] = biological target: Neu5Ac(b2-6)Gal(b1-4)GlcNAc
# How it was run: as §1
# Neu5Ac(b2-6)GalNAc = biological target: Neu5Ac(b2-6)GalNAc
# How it was run: as §1
# [14] = biological target: Neu5Ac9Ac(a2-3)Gal(b1-3)GlcNAc
# How it was run: as §1
# [15] = biological target: Neu5Ac9Ac(a2-3)Gal(b1-4)GlcNAc
# How it was run: as §1
# [16] = biological target: Neu5Ac9Ac(a2-6)Gal(b1-4)GlcNAc
# How it was run: as §1
# [17] = biological target: Neu5Gc(a2-3)Gal(b1-3)GlcNAc
# How it was run: as §1
# [18] = biological target: Neu5Gc(a2-3)Gal(b1-3)[Fuc(a1-4)]GlcNAc
# How it was run: as §1
# Neu5Gc(a2-3)Gal(b1-4)Glc = biological target: Neu5Gc(a2-3)Gal(b1-4)Glc
# How it was run: as §1
# [19] = biological target: Neu5Gc(a2-3)Gal(b1-4)GlcNAc
# How it was run: as §1
# [20] = biological target: Neu5Gc(a2-3)Gal(b1-4)GlcNAc(b1-3)Gal(b1-4)GlcNAc(b1-2)Man(a1-3)[Neu5Gc(a2-3)Gal(b1-4)GlcNAc(b1-3)Gal(b1-4)GlcNAc(b1-2)Man(a1-6)]Man(b1-4)GlcNAc(b1-4)GlcNAc
# How it was run: as §1
# [21] = biological target: Neu5Gc(a2-3)Gal(b1-4)[Fuc(a1-3)]GlcNAc
# How it was run: as §1
# [22] = biological target: Neu5Gc(a2-6)Gal(b1-4)GlcNAc
# How it was run: as §1
# Neu5Gc(a2-6)GalNAc = biological target: Neu5Gc(a2-6)GalNAc
# How it was run: as §1
# [23] = biological target: Neu5Gc(a2-8)Neu5Ac(a2-3)Gal(b1-4)GlcNAc
# How it was run: as §1
# [24] = biological target: Neu5Gc(a2-8)Neu5Gc(a2-3)Gal(b1-4)GlcNAc
# How it was run: as §1
# [25] = biological target: Neu5Gc(a2-8)Neu5Gc(a2-3)Gal(b1-4)GlcNAc(b1-3)Gal(b1-4)GlcNAc
# How it was run: as §1
# [26] = biological target: Neu5Gc(a2-8)Neu5Gc(a2-6)Gal(b1-4)GlcNAc
# How it was run: as §1
# [27] = biological target: Neu5Gc(b2-6)Gal(b1-4)GlcNAc
# How it was run: as §1
binder,measurement,setting,value
B1,glycan array binding signal (z-score),Neu5Ac(a2-8)Neu5Ac,-0.021
same,glycan array binding signal (z-score),[1],-0.328
same,glycan array binding signal (z-score),[2],0.226
same,glycan array binding signal (z-score),[3],-0.276
same,glycan array binding signal (z-score),[4],-0.461
same,glycan array binding signal (z-score),[5],-0.261
same,glycan array binding signal (z-score),[6],-0.399
same,glycan array binding signal (z-score),[7],0.84
same,glycan array binding signal (z-score),[8],-0.357
same,glycan array binding signal (z-score),[9],0.196
same,glycan array binding signal (z-score),[10],-0.338
same,glycan array binding signal (z-score),[11],-0.321
same,glycan array binding signal (z-score),[12],-0.287
same,glycan array binding signal (z-score),[13],-0.382
same,glycan array binding signal (z-score),Neu5Ac(b2-6)GalNAc,-0.443
same,glycan array binding signal (z-score),[14],-0.301
same,glycan array binding signal (z-score),[15],-0.393
same,glycan array binding signal (z-score),[16],-0.297
same,glycan array binding signal (z-score),[17],-0.088
same,glycan array binding signal (z-score),[18],0.219
same,glycan array binding signal (z-score),Neu5Gc(a2-3)Gal(b1-4)Glc,0.187
same,glycan array binding signal (z-score),[19],2.36
same,glycan array binding signal (z-score),[20],-0.251
same,glycan array binding signal (z-score),[21],-0.06
same,glycan array binding signal (z-score),[22],-0.046
same,glycan array binding signal (z-score),Neu5Gc(a2-6)GalNAc,-0.047
same,glycan array binding signal (z-score),[23],-0.379
same,glycan array binding signal (z-score),[24],-0.326
same,glycan array binding signal (z-score),[25],-0.362
same,glycan array binding signal (z-score),[26],-0.249
same,glycan array binding signal (z-score),[27],-0.065

# — the supplement of paper PMC8728848
